Whole data set: some 33,000 sequences, median “E-score (-0.5 to 0.5)” near -0.035, cut for the highest 2% near 0.35. This is one part of the list.
Target: T1, Pdr3 (UniProt P33200)
T1 sequence: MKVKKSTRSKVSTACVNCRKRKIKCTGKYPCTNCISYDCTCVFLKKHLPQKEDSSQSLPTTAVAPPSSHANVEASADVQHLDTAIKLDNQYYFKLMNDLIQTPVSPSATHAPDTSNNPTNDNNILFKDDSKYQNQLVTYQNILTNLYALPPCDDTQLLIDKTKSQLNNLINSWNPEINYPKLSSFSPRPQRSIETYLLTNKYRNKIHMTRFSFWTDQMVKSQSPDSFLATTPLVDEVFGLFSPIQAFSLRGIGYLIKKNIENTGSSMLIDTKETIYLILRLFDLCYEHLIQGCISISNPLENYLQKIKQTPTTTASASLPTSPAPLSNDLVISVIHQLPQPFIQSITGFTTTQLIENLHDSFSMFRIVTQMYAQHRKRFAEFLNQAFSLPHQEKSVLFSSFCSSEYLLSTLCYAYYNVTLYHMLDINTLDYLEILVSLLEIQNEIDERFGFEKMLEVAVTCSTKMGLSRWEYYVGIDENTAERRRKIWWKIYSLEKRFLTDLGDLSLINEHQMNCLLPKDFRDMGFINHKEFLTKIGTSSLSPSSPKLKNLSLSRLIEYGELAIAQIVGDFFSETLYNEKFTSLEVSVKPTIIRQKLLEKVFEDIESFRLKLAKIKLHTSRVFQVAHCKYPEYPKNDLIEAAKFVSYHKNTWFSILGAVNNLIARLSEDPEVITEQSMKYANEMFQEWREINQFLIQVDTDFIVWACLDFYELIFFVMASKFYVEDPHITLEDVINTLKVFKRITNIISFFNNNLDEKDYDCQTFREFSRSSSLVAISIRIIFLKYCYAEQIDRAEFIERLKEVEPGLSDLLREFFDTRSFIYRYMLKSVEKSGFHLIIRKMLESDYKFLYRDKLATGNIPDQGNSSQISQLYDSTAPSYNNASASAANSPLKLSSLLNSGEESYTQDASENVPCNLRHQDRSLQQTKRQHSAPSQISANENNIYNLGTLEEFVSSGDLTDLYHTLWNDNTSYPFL
Assay: PBM E-score (8-mer binding enrichment) (E-score (-0.5 to 0.5)); higher = stronger / more preferred TF binding; most listed sequences are background and not binding sites
Details: protein concentration: 200 nM; construct: GST-full length
Summary of the method: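 Universal all-10-mer Agilent arrays, fresh or stripped once, were converted to double-stranded form by primer extension. GST-tagged yeast transcription factors from PURExpress in vitro transcription/translation, full-length or DNA-binding domain only, were applied at about 100-200 nM and detected with fluorescent anti-GST. After masliner normalisation, the Universal PBM Analysis Suite scored each ungapped eight-base word together with its reverse complement by E-score.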

Row | Sequence | PBM E-score
1 | ACAGCGAG | 0.0203
2 | CCACGTGA | -0.0844
3 | ATATAGGC | 0.0495
4 | ACCGAAAA | 0.00943
5 | CAACAAGC | -0.101
6 | AACCTTAA | 0.0253
7 | GGGTGCTA | -0.127
8 | GGGGCTAA | -0.156
9 | CCTCTCGA | -0.179
10 | AGCATCCG | 0.264
11 | ATGCTCTG | -0.11
12 | CAATGTTC | -0.00706
13 | GGATTGTA | 0.0987
14 | ACGGCGCC | 0.243
15 | AACGTGGG | -0.153
16 | ATCGCACA | -0.207
17 | GCGCATGA | -0.107
18 | CATGCACA | -0.0998
19 | CAACCCTG | 0.0534
20 | ACCTACGT | -0.0544
21 | GGGACTTA | -0.0563
22 | CTACGAAG | -0.339
23 | GACGCATA | -0.00377
24 | ACTGACGG | 0.15
25 | ACTCCCTC | -0.236

Row | Sequence | PBM E-score
26 | ACCATTGG | -0.121
27 | ATCACACA | -0.101
28 | CATCGACA | -0.0292
29 | AAGTGTGG | 0.0987
30 | AGGCCTGC | -0.0432
31 | AGTCCTCG | -0.184
32 | GGAGCGGA | 0.326
33 | CGGGAACG | 0.285
34 | ACCCCGAG | 0.0107
35 | AACGCCTA | -0.132
36 | ACACACTC | 0.0875
37 | CATGAATA | -0.313
38 | CAGGCAAA | 0.00637
39 | GCGCTAAC | -0.104
40 | CCTGGACC | -0.117
41 | ATCGGAAC | 0.469
42 | ACCCCACG | -0.0103
43 | GTGGGCAA | -0.22
44 | AAGTCGCC | -0.0545
45 | CTAACTAA | -0.136
46 | AGCCTGAA | -0.0826
47 | ATGCTCGC | -0.113
48 | AACTTGGC | -0.014
49 | ACGTCTAC | -0.235
50 | CCAGAGCG | -0.109

Row | Sequence | PBM E-score
51 | AAATCCCC | 0.0279
52 | CGCGCACA | 0.0847
53 | AAAATGTC | -0.0052
54 | AGCTCTGG | -0.168
55 | AAAATTGC | -0.0268
56 | CATCGAGA | -0.1
57 | CAATGGTG | -0.168
58 | ATGGTTCC | 0.371
59 | GTGGGAGA | -0.217
60 | CGACCGAG | 0.124
61 | CAACTTGC | -0.171
62 | CCACCTAA | -0.163
63 | AGACCGCT | -0.111
64 | CTCAGAAG | -0.174
65 | ACGGGTGG | 0.323
66 | CATAACAA | 0.104
67 | ATGCTAAC | -0.00545
68 | ACTCCGAC | 0.255
69 | AACCGCCA | -0.0357
70 | CCAGTCAC | -0.0677
71 | CTGCGGCA | 0.0359
72 | CGTTACCC | 0.0536
73 | CAACCCGG | 0.293
74 | TGATCAAA | -0.141
75 | ATAGTAAA | 0.039

Row | Sequence | PBM E-score
76 | GAAATAGC | 0.0225
77 | CCGTCGGC | 0.285
78 | GACGTACA | -0.138
79 | GTTTCAGA | -0.0598
80 | ACCCAAGA | -0.0781
81 | AGCGAGCC | 0.0476
82 | AGAGAGTC | -0.249
83 | CTCTACCC | -0.176
84 | ACGGGGCC | 0.166
85 | CTTTAAGC | -0.165
86 | CTCGATCC | 0.153
87 | AATACTAG | 0.023
88 | CGACCAAC | 0.0392
89 | AAGATCTC | -0.134
90 | GGGAACAC | 0.183
91 | GATGGAGA | 0.0098
92 | CCTCCCTA | -0.228
93 | CTCAGCTC | 0.0376
94 | ATGACAGC | -0.202
95 | GAGGAAGC | -0.0425
96 | GGTGGTAC | -0.0698
97 | TATTTCGA | 0.0154
98 | AACCAACG | -0.0168
99 | ACCCATGC | -0.0401
100 | TCATCAGA | -0.127

Row | Sequence | PBM E-score
101 | AGACACCG | 0.0281
102 | AACGGAGC | 0.275
103 | GGCTGCCA | -0.0823
104 | CCCCGTAC | -0.184
105 | ACTCCCGG | 0.356
106 | CAGATGTC | -0.0141
107 | CACACGTC | -0.157
108 | AAGTCACT | -0.0519
109 | ACCGCCGA | 0.103
110 | CTTACAAA | -0.0864
111 | CATCTTCG | 0.0347
112 | GTCACTGA | -0.0588
113 | ATTCTGAG | -0.156
114 | TATTGTCA | -0.0212
115 | ATTTCACA | 0.0307
116 | ACATGCCT | -0.129
117 | GGCAACAA | -0.0279
118 | AGAGATTC | 0.103
119 | AATTCCGA | 0.423
120 | AGATCTGG | -0.154
121 | GACAATGC | -0.0041
122 | GAGATCCA | 0.112
123 | CGCGATCC | 0.137
124 | ACACGAAA | 0.063
125 | ACGGTGCG | 0.145

Row | Sequence | PBM E-score
126 | GTCAATTA | -0.0543
127 | TAGTTATA | -0.0743
128 | AGTAGCAA | 0.1
129 | CAAAACCC | 0.195
130 | CGCGCCAC | 0.0494
131 | AGACCCAA | -0.0539
132 | CCAGCGTC | -0.0164
133 | CACTCATC | -0.0423
134 | AGCAGCGC | -0.0233
135 | GGTGAGTA | -0.133
136 | AAACAAGA | 0.0402
137 | AGGACTTC | -0.0813
138 | GTGGAAAA | -0.109
139 | GTGCGAAA | -0.0529
140 | AGACCACG | -0.235
141 | CGAGCCGC | 0.3
142 | ATCCTAAC | -0.121
143 | AGGTAAGG | -0.247
144 | ACAAATGA | -0.197
145 | AGACTACT | -0.173
146 | GGACGCCA | 0.0768
147 | GCCGACCA | 0.0918
148 | CATAGGGG | -0.0816
149 | CGCGTGAA | 0.189
150 | ATGGTCAG | -0.0886

Row | Sequence | PBM E-score
151 | GAACTGGA | 0.185
152 | TATGAAAA | 0.0697
153 | AGGATTAA | -0.0781
154 | GATAGGCA | -0.202
155 | CAAACTCC | 0.138
156 | TGAGCTAA | -0.15
157 | AGAGACAA | -0.226
158 | AACATGGT | -0.187
159 | GGAGCTAA | -0.0167
160 | ATGCTTAG | -0.25
161 | AAGAAGCT | -0.125
162 | TACCGAAA | 0.0817
163 | TACACAGA | -0.203
164 | CCTTACAC | -0.203
165 | AACAAGCG | 0.0731
166 | GACCATTA | -0.0786
167 | ACTTACAC | -0.212
168 | AGCGCCTG | 0.0403
169 | CAATGTCG | -0.00468
170 | AATGAGTC | -0.0271
171 | CTTAGCGA | 0.0213
172 | GCGTTGCC | 0.126

— the supplement of paper PMC3334620
